Experimental data reported in article PMC6919601, “Identification of Plasmodium dipeptidyl aminopeptidase allosteric inhibitors by high throughput screening” (PLoS ONE, 2019).
Values joined by “and” are separate entries in the source; they are usually repeats but may differ in a detail not shown here. Identical values can stand only once. About 230 (0.21%) of roughly 110,000 compounds showed an effect of 50% or more. Some of the results follow.

Target: DPAP1 (Plasmodium falciparum, UniProt Q8IIJ9)
Assay: primary screen, percent inhibition; read by cleavage of a fluorogenic dipeptide substrate; higher = more effect of the substance
Set-up: species or system P. falciparum D10 trophozoite lysates; single well
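Note: 30 min substrate incubation versus DMSO and 10 µM JCP410 controls.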

DPAP1, sequence (Q8IIJ9 whole entry, looked up): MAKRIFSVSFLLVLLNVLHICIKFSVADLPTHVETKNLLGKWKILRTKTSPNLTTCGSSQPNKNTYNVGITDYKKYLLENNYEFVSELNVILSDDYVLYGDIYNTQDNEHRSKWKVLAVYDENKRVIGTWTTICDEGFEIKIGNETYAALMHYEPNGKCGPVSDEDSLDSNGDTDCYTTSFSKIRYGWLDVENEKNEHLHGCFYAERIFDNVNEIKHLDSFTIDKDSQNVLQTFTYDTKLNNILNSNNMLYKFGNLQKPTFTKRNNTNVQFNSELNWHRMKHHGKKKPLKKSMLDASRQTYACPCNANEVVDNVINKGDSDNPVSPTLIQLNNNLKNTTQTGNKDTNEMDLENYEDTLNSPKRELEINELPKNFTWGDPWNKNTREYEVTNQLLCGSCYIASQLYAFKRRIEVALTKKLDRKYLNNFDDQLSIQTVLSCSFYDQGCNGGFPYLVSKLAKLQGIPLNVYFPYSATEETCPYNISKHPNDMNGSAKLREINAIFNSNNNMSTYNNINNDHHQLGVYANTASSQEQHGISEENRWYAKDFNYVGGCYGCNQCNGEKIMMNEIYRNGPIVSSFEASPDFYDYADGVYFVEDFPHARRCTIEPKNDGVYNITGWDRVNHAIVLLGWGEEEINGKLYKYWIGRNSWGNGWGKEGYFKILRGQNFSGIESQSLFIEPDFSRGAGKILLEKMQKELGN

| Compound | % Inhibition @ 10 uM |
| --- | --- |
| Cc1nc2ccccc2nc1OCC(=O)c1ccc(Cl)cc1 | -3.23% |
| Clc1ccc2c(c1)c1c(n2Cc2ccccc2)-c2n[nH]cc2CC1 | 4.57% |
| CC(C)c1ccc(-n2nnc(-c3nc(-c4ccc5c(c4)OCO5)no3)c2N)cc1 | 4.23% |
| CC1=C(C)CC(C(=O)Nc2ccc(Br)cc2)C(C(=O)O)C1 (stereo not shown) | -3.39% |
| O=C(CSc1ccccn1)Nc1ccc(F)cc1 | -1.06% |
| Cn1cc(S(=O)(=O)N2CCOCC2)cc1C(=O)Nc1nccs1 | -2.17% |
| CCCN1Cc2cccc(C(=O)NCCc3ccccc3)c2C1=O | -2.29% |
| O=S(=O)(/N=C/c1ccc(Br)cc1)c1cccs1 | 2.09% |
| Cc1ccnc(NC(c2ccc(OC(C)C)cc2)c2ccc3cccnc3c2O)c1 (stereo not shown) | -8.95% |
| COCCNC(=O)c1ccc(CS(=O)(=O)c2c(Cl)cccc2Cl)o1 | -4.71% |
| COC(=O)c1sccc1-n1c(S)c(C#N)c(N)c(C#N)c1=N | -2.21% |
| CC(C)C[C@H](NC(=O)OCc1ccccc1)C(=O)NC(C#N)CCS(C)(=O)=O (stereo partly shown) | -3.04% |
| Cc1sc(NC(=O)c2cc(-c3ccc4c(c3)OCO4)nc3ccccc23)c(C(N)=O)c1C | 6.08% |
| CCN(CC)C(=O)CSc1nc(-c2ccc(OC)cc2)nc2c1Cc1cccc(OC)c1O2 | 6.55% |
| NC(=O)CSc1nnc(CSc2ncccn2)n1-c1ccccc1 | -2.45% |
| O=C(NC(C(F)(F)F)C(F)(F)F)N1CCOCC1 | -6.06% |
| O=C(c1cc2nc(-c3ccc4c(c3)OCO4)cc(C(F)(F)F)n2n1)N1CCN2CCCC2C1 (stereo not shown) | 4.49% |
| Cn1nc(-c2ccccc2F)c2cc(C(=O)N3CCc4ccccc4C3)sc21 | -2.16% |
| Cc1ccc(-c2ccc(C3C(C#N)=C(N)OC4=C3C(=O)CCC4)o2)cc1 (stereo not shown) | -0.864% |
| O=[N+]([O-])c1ccc(CN2CCSCC2)cc1 | 1.38% |
| CN1C(=O)c2ccccc2C(C(=O)NCCCN(Cc2ccco2)C2CCCC2)C1c1cccs1 (stereo not shown) | -2.97% |
| Fc1cccc(CN2CCc3c([nH]c4ccccc34)C2)c1 | -0.197% |
| O=C(NCc1ccco1)c1cc(-c2ccc(Br)cc2)on1 | 2.65% |
| COc1ccc(C2c3[nH]c4ccccc4c3CC3C(=O)N(C)C(=S)N32)cc1OC (stereo not shown) | 3.15% |
| Cc1c(Cl)cccc1N(CC(=O)NCC1CCCO1)S(=O)(=O)c1ccccc1 (stereo not shown) | 11.2% |

| Compound | % Inhibition @ 10 uM |
| --- | --- |
| Cc1ccc(C(=O)Nc2nsc(-c3ccccc3)n2)cc1 | -0.95% |
| CCOC(=O)N1CCN(c2c(NC3CCC(C)CC3)c(=O)c2=O)CC1 (stereo not shown) | 1.73% |
| O=C(c1ccco1)N1CCN(C(=O)c2c3c(nc4ccccc24)C(=O)N(C2CCCCC2)C3)CC1 | -0.12% |
| Cc1ccc(S(=O)(=O)n2nc(C)cc2C)cc1 | 2.45% |
| CC(=O)Nc1ccc(-c2cc3ccccc3o2)cc1 | 2.09% |
| Cc1ccc(CN(CC(=O)N2CCCCCC2)S(=O)(=O)c2ccc(Br)cc2)cc1 | -4.33% |
| COc1ccc2nc3sc(C(=O)NCCCN4CC(C)CC(C)C4)cc3cc2c1 (stereo not shown) | -2.44% |
| CCCOc1ccc(-c2nc3s/c(=C\c4cc(OC)ccc4OC)c(=O)n3n2)cc1 | 3.8% |
| c1ccc(-c2nc(N3CCCCCC3)nc(-n3ccnc3)n2)cc1 | -2.5% |
| Cn1c(CCc2ccccc2)nnc1SCc1nc(-c2cccs2)no1 | -7.86% |
| O=C(Nc1ccccc1C(=O)N1CCCCC1)c1ccc(Cl)cc1 | 0.563% |
| CC1CN(S(=O)(=O)c2ccc(C3CCCCC3)cc2)CC(C)O1 (stereo not shown) | 0.457% |
| C=CCOC(=O)C1=C(C)N=C(C)/C(=C(/O)OCC=C)C1c1cccs1 (stereo not shown) | -3.75% |
| COc1ccc(-c2nc3n(n2)C(c2ccc4c(c2)OCO4)C2=C(O)CC(C)(C)CC2=N3)cc1 (stereo not shown) | 3.59% |
| c1ccc2c(OCCCCCN3CCCC3)cccc2c1 | 0.273% |
| CC(C)c1nnc(NC(=O)c2cccc([N+](=O)[O-])c2)s1 | 0.0345% |
| C=CCOC(=O)c1sc(N2C(=O)c3oc4ccccc4c(=O)c3C2c2ccc(C)o2)nc1C (stereo not shown) | 2.16% |
| Cc1nc2c(-c3ccccc3)c(C)nn2c(N)c1-c1ccccc1 | 1% |
| COc1cc(C2CC(c3ccc(Cl)cc3)Nc3nnnn32)cc(OC)c1OC (stereo not shown) | 0.0842% |
| COc1ccc2cc(C(=O)O)sc(=O)c2c1OC | 0.221% |
| CCn1nc(C)c(CCNC(=O)c2cc3c(=O)n(Cc4ccc(OC)cc4)ccc3nc2C)c1C | 0.0575% |
| Cc1ccc(-c2cc(C(=O)N3CCOCC3)[nH]n2)cc1C | -1.63% |
| CCN(CC)CCNc1ncnc2onc(-c3ccc(Cl)cc3)c12 | -13.7% |
| COc1ccc(C(=O)Nc2nc3nc(C)c(Cl)c(O)n3n2)cc1OC | 2.05% |
| CCNC(=O)C(Cc1c[nH]c2ccccc12)NC(=O)OC(C)(C)C (stereo not shown) | -0.992% |

| Compound | % Inhibition @ 10 uM |
| --- | --- |
| C=C(C)Cn1c(S)nnc1-c1ccccc1 | 3.44% |
| COc1ccc(CNC(=O)C2CCC(=O)N2C(C)C)cc1 (stereo not shown) | -1.21% |
| COc1ccc(-c2csc(NC(=O)C3CC=CCC3C(=O)O)n2)cc1 (stereo not shown) | -7.14% |
| Cc1ccc2oc(=O)c3cnn(CC(=O)Nc4nc5ccccc5s4)c3c2c1 | 1.62% |
| CCOC(=O)c1nc2nc(C)cc(O)n2n1 | -9.24% |
| CC1=C(c2ccc(C(C)C)cc2)S(=O)(=O)N=C1NCC(C)c1ccccc1 (stereo not shown) | 0.623% |
| CCOc1ccc(/C=C2\N=C(c3ccc(OC)c(OC)c3)OC2=O)cc1 | -2.27% |
| COc1cccc(C2C(C#N)=C(N)N(c3nc[nH]n3)C3=C2C(=O)CC(C)(C)C3)c1OC (stereo not shown) | 3.99% |
| CC(C)(C)c1ccc(C(N)C(=O)O)s1 (stereo not shown) | -7.35% |
| COc1cc(C(=O)N2CCN(C(=O)c3ccncc3)CC2)cc(OC)c1OC | -8.11% |
| CC(CCc1ccccc1)N1CCN(Cc2ccccc2)CC1 (stereo not shown) | -1.81% |
| CC(NC(=O)c1ccc2nc(N3CCOCC3)sc2c1)c1ccc2c(c1)OCCO2 (stereo not shown) | -2.37% |
| COc1ccc(OC)c(C2C=C(c3ccc(C)c(C)c3)Nc3nnnn32)c1 (stereo not shown) | -8.88% |
| Cc1cccn2c(=O)c3cc(C#N)c(=N)n(Cc4ccncc4)c3nc12 | 0.722% |
| O=C(NC1CCCCCC1)c1ccc([N+](=O)[O-])cc1 | -3.04% |
| COc1ccc(NS(=O)(=O)c2ccc(C(C)C)cc2)cc1 | 0.565% |
| CC(C)n1c(Sc2nncn2C)nc2c1c(=O)n(C)c(=O)n2C | 1.52% |
| c1ccc(-c2cn3nc(C4CCCCC4)sc3n2)cc1 | -2.71% |
| O=C(N/C(=C\c1cccc(Br)c1)C(=O)N1CCCCC1)c1ccco1 | 2.38% |
| Cc1nn(CCC(=O)NC2CCCCCC2)c(=O)c2nn(-c3ccccc3)c(C)c12 | -10.6% |
| Oc1ccccc1Cn1c2ccccc2c2ccccc21 | 0.135% |
| NC(=O)C1CCN(c2ncnc3onc(-c4ccc(Cl)cc4)c23)CC1 | 1.15% |
| CN1CCN(C2=NC(=O)/C(=C/c3ccc(Br)cc3)S2)CC1 | -0.48% |
| CCO/C(O)=C/C1=NCCCCC1 | -3.33% |
| COc1cc(C2C(C(=O)c3ccc(Cl)cc3)=C(O)C(=O)N2c2nc3ccccc3s2)ccc1O (stereo not shown) | -1.33% |

| Compound | % Inhibition @ 10 uM |
| --- | --- |
| CC(C)(C)NC(=O)CCNS(=O)(=O)c1cc(Br)cnc1N | -6.98% |
| O=C(Nc1ccccc1O)/C(=C\c1ccsc1)NC(=O)c1ccccc1 | -0.305% |
| Cn1cnc2c(=O)oc3ccc(S(=O)(=O)N4CCN(C5CCCCC5)CC4)cc3c21 | 3% |
| CC(C)(C)c1ccc(N2C(=O)CC(=O)NC2=O)cc1 | -3.78% |
| O=C1CN(S(=O)(=O)c2cccc3cccnc23)CC(=O)N1CCc1ccccc1 | 0.0654% |
| O=[N+]([O-])c1ccc(CNc2ccc(Br)cc2)cc1 | -2.21% |
| COc1ccc(-c2c3c(=O)n(C)c(=O)n(C)c3cn2NC(C)=O)cc1 | 2.95% |
| COc1cc2c(C(=O)N3CCOCC3)c(CN3CCOCC3)n(C)c2cc1Br | -3.34% |
| CC1CC(C)CN(S(=O)(=O)c2ccc(Cl)cc2)C1 (stereo not shown) | -4.4% |
| COc1ccc(C2NCCc3c2[nH]c2ccccc32)cc1OC (stereo not shown) | 0.815% |
| CC1=CC(C)C2(COC(=O)Nc3ccccc3)COC(C)C1C2C (stereo not shown) | -0.582% |
| Cc1ccccc1C(=O)Nc1ccc(-c2nc3cc(Cl)ccc3o2)cc1 | -2.51% |
| CC(=O)c1cccc(NC(=O)COc2ccccc2)c1 | -1.29% |
| CCn1c(C(=O)N2CCC(C(=O)NCCOC)CC2)cc2sccc21 | 4.95% |
| CCCNC(=O)CSC1=N/C(=C\c2ccc(Cl)cc2Cl)C(=O)N1C | 2.38% |
| Cc1ccc(OCC(=O)Nc2ccc(S(=O)(=O)Nc3nccs3)cc2)c(Br)c1 | -4.67% |
| O=C1N2CN(C3CCCCC3)CN3C(=O)N4CN(C5CCCCC5)CN1C4C23 (stereo not shown) | 0.565% |
| O=C(CC1Nc2ccccc2NC1=O)Nc1ccccc1 (stereo not shown) | 32.7% |
| COC(=O)C1=C(C)NC(=O)/C1=C\c1ccc(Cl)cc1Cl | -1.76% |
| O=C(CS(=O)(=O)c1ccc2ccccc2c1)Nc1ccccc1Cl | 0.726% |
| CC(C)C[C@H](NC(=O)c1cccc(-c2ccc3c(c2)OCO3)c1)C(=O)NCC#N | -6.98% |
| Cc1cc(C)n(CCCCCC(=O)O)c(=O)n1 | -1.29% |
| O=C(NCCc1ccncc1)NC1CCCCC1 | 2.17% |
| Nc1cnc2ccc3nn(-c4ccccc4)nc3c2n1 | -8.3% |
| CCOc1ccccc1N(CC(=O)N1CCN(C)CC1)S(=O)(=O)c1ccccc1 | 0.851% and -2.29% |
